# Reference: PubChem BioAssay AID485364 (National Center for Advancing Translational Sciences (NCATS), 2010)
# Several values for one entry are separate records, joined by “and”; a condition that tells them apart may be missing. Identical values can stand only once. The campaign covered roughly 360,000 compounds. About 11,000 (3.1%) were called active. The shares of active, inactive and inconclusive entries below differ from those in the screen. Calls follow the shape of the dose curve; as a rule, active = well fitted inhibition curve with a large enough effect; inconclusive = small, poorly fitted or top-dose-only effect; inactive = no such curve, though single readings can be large or run the other way. No potency is given beside an inconclusive call; the fits are too rough.
# Molecular target: Schistosoma mansoni thioredoxin glutathione reductase (TGR) (UniProt Q962Y6)
# Test: qHTS Assay for the Inhibitors of Schistosoma Mansoni Peroxiredoxins; also: nearly all actives have a fitted effect of over 60% in size
# Conditions: purified TGR, DTNB reduction, TNB absorbance 405 nm; activity change, negative = inhibition: at 114 µM (top of the series) unless noted
# Method in brief: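 First, TGR (20 nM dispensed) and NADPH were mixed with compound. Second, a 15 min room-temperature incubation followed. Third, further NADPH and then DTNB were added to start the reaction. Finally, TNB absorbance was monitored kinetically.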
# % is scaled to controls: 0 for no effect and ±100 for the full control effect; potency is read from the fitted curve at half-maximal effect; tags tell the direction and shape of the fitted curve.
SMILES,Potency,"activity change, negative = inhibition"
COc1cccc(CN2CCNC(=O)C2CC(=O)NC2CCOCC2)c1OC (stereo not drawn),"inconclusive [inhibitor, partial curve]",–
CCCN1CCN(C(=O)CN2C(=O)CC(C)(C)S(=O)(=O)c3ccccc32)CC1,"inconclusive [inhibitor, partial curve]",–
COc1ccc(CNC(=O)c2nc(S(=O)(=O)Cc3ccccc3)ncc2Cl)cc1,active: 3.98 µM and active: 2.51 µM,–
CCCc1cc(CNC(=O)C2CCC(=O)N(Cc3ccccc3OC)C2)on1 (stereo not drawn),"inconclusive [inhibitor, single point]",–
NCCCS(=O)(=O)O,inactive,–
CC(C(=O)NC1CCCC1)N1CCN(S(=O)(=O)c2ccccc2Cl)CC1 (stereo not drawn),active: 35.5 µM,–
COc1ccc(C(=O)c2ccc(OC)c3cccc(O)c23)cc1OC,"inconclusive [inhibitor, single point]",–
CN1C(=O)C(C(=O)NC(C)(C)C)C2c3ccccc3OC13CCCCC23 (stereo not drawn),"inconclusive [inhibitor, partial curve]",–
CN(C)S(=O)(=O)c1cccc(NC(=S)NCCCn2ccnc2)c1,active: 50.1 µM,–
CC(=O)c1ccc(NC(=O)CCc2nc(-c3ccc(C)cc3)no2)cc1,"inconclusive [inhibitor, partial curve]",–
COc1ccc(C(=O)N2CCCC(N3CCN(c4ccccc4F)CC3)C2)c(OC)n1 (stereo not drawn),"inconclusive [inhibitor, single point]",–
C#CCSc1nnc(CNS(=O)(=O)c2ccc(Br)cc2)n1C,active: 10 µM,–
O=C(CCl)N(C/C=C/c1ccccc1)c1ccc2c(c1)OCCO2,active: 7.08 µM,–
O=C(/C=C/c1ccco1)NCC1CCCO1 (stereo not drawn),active: 5.01 µM,–
O=Cc1c(Nc2ccccc2Cl)nc2ccccn2c1=O,active: 10 µM,–
CC(C)C(CCN1C(=O)c2ccccc2C1=O)c1ccco1 (stereo not drawn),"inconclusive [inhibitor, partial curve, poor fit]",–
OCCNc1nc(-c2ccccc2)c2cc(Cl)ccc2n1,"inconclusive [inhibitor, single point]",–
COc1cc(CN2CCC(C(=O)N3CCCC(C)C3)CC2)cc(Br)c1O (stereo not drawn),"inconclusive [inhibitor, partial curve]",–
CN1CN(C)c2cccc3cccc1c23,–,inactive: -7.24%
C=CCN1CCc2cc(O)c(O)cc2C(c2ccccc2)C1 (stereo not drawn),"inconclusive [inhibitor, partial curve]",–
COc1ccc(CN2CCNC(=O)C2CC(=O)NCc2cn[nH]c2-c2ccccc2)c(F)c1 (stereo not drawn),"inconclusive [inhibitor, partial curve]",–
CC1CCN(C(=O)/C(=C\c2cccs2)NC(=O)c2ccccc2)CC1,active: 3.98 µM,–
Clc1ccc(OCC#CCN2CCOCC2)cc1,"inconclusive [inhibitor, partial curve]",–
COc1ccccc1NC(=O)c1c(NC(=O)c2ccco2)sc2c1CCC2,"inconclusive [inhibitor, single point]",–
CC(C)CN(C(=O)c1cccc(Cl)c1)c1c(N)n(Cc2ccccc2)c(=O)[nH]c1=O,"inconclusive [inhibitor, partial curve]",–

SMILES,Potency,"activity change, negative = inhibition"
COc1ccc(C2=NN(C(=O)CCC(=O)O)C(c3ccc(Br)cc3)C2)cc1 (stereo not drawn),"inconclusive [inhibitor, single point]",–
O=C(CN(Cc1ccco1)C(=O)CNS(=O)(=O)c1ccc(F)cc1)NCc1ccc(F)cc1,"inconclusive [inhibitor, partial curve]",–
COc1ccccc1N1CCN(C(=O)/C=C/c2ccco2)CC1,active: 50.1 µM,–
Cc1ccc(N2C(=O)CC(=O)NC2=O)cc1Cl,"inconclusive [inhibitor, full curve, poor fit]",–
COc1ccc(NC(C)=O)cc1S(=O)(=O)N1CCN(C(=O)c2ccccc2F)CC1,–,inactive: -5.19%
CC(NC(=O)c1cc(-c2ccncc2)nc2ccc(Cl)cc12)C1CCCO1 (stereo not drawn),–,inactive: 0.181%
N#C/C(=C\c1cc(Cl)cc(Cl)c1O)C(=O)NC1CCCCC1,"inconclusive [inhibitor, full curve, poor fit]",–
CN1CC(=O)N(CC(=O)Nc2ccc(N3CCOCC3)cc2)C1=O,"inconclusive [inhibitor, partial curve]",–
CC(C)CN1C(=O)c2ccc(NC(=O)C3CC3)cc2C1=O,–,inactive: -1.51%
Cc1cn2c(=O)c(S(=O)(=O)Nc3ccc(F)cc3F)c(C)nc2s1,–,inactive: -0.809%
Cc1noc2ncnc(Sc3ccc(Br)cc3)c12,"inconclusive [inhibitor, partial curve]",–
COc1ccccc1CN(CC(=O)NCc1ccc2c(c1)OCO2)C(=O)c1ccc2c(c1)OCCO2,–,inactive: 4.75%
COC(=O)c1nnn(-c2ccc(Br)cc2)c1C(=O)OC,"inconclusive [inhibitor, single point]",–
Cc1ccc(CSCc2ccc(C(=O)O)o2)cc1,"inconclusive [inhibitor, partial curve]",–
Cc1cccc(NC(=O)CN2CCCN(S(=O)(=O)c3ccc(Br)s3)CC2)c1,active: 25.1 µM,–
COc1ccc(NC(=O)c2cccnc2Nc2ccc(OC)cc2)cc1,–,inactive: 10.3%
S=C(NCCCn1ccnc1)Nc1ccc(Cl)cc1Cl,active: 31.6 µM,–
S=c1[nH]nc(-c2cc(-c3ccccc3)n[nH]2)n1/N=C/C(Br)=C/c1ccccc1,"inconclusive [inhibitor, partial curve]",–
COC(=O)CN1C(=S)N(c2ccc(F)cc2)C(=O)C1CC(=O)Nc1ccc(F)cc1 (stereo not drawn),–,inactive: -1.46%
CCCCN(CCCC)c1nc2ccccc2nc1C(C#N)C(=O)NCCCOC (stereo not drawn),"inconclusive [inhibitor, single point]",–
O=S(=O)(c1ccccc1)c1nc(-c2ccc(F)cc2)oc1NCC1CCCO1 (stereo not drawn),active: 44.7 µM,–
COc1ccccc1NC(=O)Cn1c(=O)c(CNc2ccccc2)cc2cc(OC)c(OC)cc21,"inconclusive [inhibitor, full curve, poor fit]",–
O=C(CN1CCN(c2ccccc2F)CC1)c1ccc(O)cc1O,"inconclusive [inhibitor, partial curve]",–
CCOCc1cc(CN2CCN(c3ccccc3OC)CC2)c(O)c2ncccc12,"inconclusive [inhibitor, partial curve]",–
O=C(c1nc2n(n1)C(c1ccc(Cl)cc1)C=C(c1ccccc1)N2)N1CCOCC1 (stereo not drawn),active: 10 µM,–

SMILES,Potency,"activity change, negative = inhibition"
Cn1nc(-c2ccc(C(=O)O)cc2)c2ccccc2c1=O,–,inactive: -11.8%
N#Cc1ccccc1COC(=O)c1cccnc1N,"inconclusive [inhibitor, partial curve, poor fit]",–
Cc1c(CN2CCCCC2)c(O)n(CCCO)c(=O)c1C#N,"inconclusive [inhibitor, partial curve]",–
CC1CS(=O)(=O)CCN1N=Cc1ccc([N+](=O)[O-])o1 (stereo not drawn),"inconclusive [inhibitor, partial curve]",–
COc1cccc(CN2CCC(n3nccc3NC(=O)CCCc3ccccc3)CC2)c1O,active: 8.91 µM,–
O=c1[nH]c(=S)n(-c2ccccc2F)c(O)c1C=NCCN1CCNCC1,"inconclusive [inhibitor, partial curve]",–
ClCCN1CCN(c2ccnc3cc(Cl)ccc23)CC1,"inconclusive [inhibitor, partial curve]",–
CC(C)Cn1cnc2c1c(=O)n(CC(=O)Nc1ccc3c(c1)OCO3)c(=O)n2Cc1ccccc1,–,inactive: -9.18%
COc1cc(CN2CCNCC2)cc(OC)c1OC,–,inactive: 9.64%
O=c1nc2n(c3ccccc13)Cc1ccccc1-2,"inconclusive [inhibitor, full curve, poor fit]",–
COc1cccc(C(C2C(=O)CC(C)(C)CC2=O)C2C(=O)CC(C)(C)CC2=O)c1,"inconclusive [inhibitor, partial curve]",–
COc1ccc2[nH]c(=O)c(C(c3nnnn3C(C)(C)C)N(Cc3ccco3)CC3CCCO3)cc2c1 (stereo not drawn),"inconclusive [inhibitor, partial curve]",–
O=C(Nc1sc2c(c1C(=O)O)CCCC2)C(=O)N1CCOCC1,–,inactive: -2.64%
CC(=O)O[C@]1(C(C)=O)CC[C@H]2[C@@H]3C=C(Cl)C4=CC(=O)CC[C@]4(C)[C@H]3CC[C@@]21C,"inconclusive [inhibitor, partial curve]",–
CCCc1ccc(C(=O)NNC(=O)c2ccc(Br)cc2)cc1,–,inactive: -0.518%
CCCOc1ccc2nc(C)c(CCC)c(SC(=N)N)c2c1,–,inactive: 12.3%
CN(Cc1ccon1)C(=O)CC1C(=O)NCCN1Cc1ccccc1C(F)(F)F (stereo not drawn),"inconclusive [inhibitor, partial curve]",–
COc1ccc(CCNC(=O)CCc2nnc(Cc3ccc4c(c3)OCO4)o2)c(OC)c1,"inconclusive [inhibitor, partial curve]",–
COc1ccccc1NC(=O)CC(c1ccc(F)cc1)c1ccco1 (stereo not drawn),"inconclusive [inhibitor, partial curve]",–
O=c1cc(CSc2ccc(Cl)cc2)nc2nc[nH]n12,"inconclusive [inhibitor, partial curve]",–
CCOC(=O)c1cc([N+](=O)[O-])c([N+](=O)[O-])cc1NC(C)=O,active: 0.501 µM,–
CCOC(=O)C1CCN(C(c2ccccn2)c2c(C)[nH]c3ccccc23)CC1 (stereo not drawn),active: 0.282 µM,–
COC(=O)CSc1nc2ncccc2[nH]1,–,inactive: 1.58%
